According to PubChem BioAssay AID652104 (National Center for Advancing Translational Sciences (NCATS), 2013):
Among all 410,000 compounds or so, about 7,200 (1.8%) were called active. This list was built around the results that the source calls inconclusive (neither active nor inactive); the mix of calls is not that of the screen. Calls follow the shape of the dose curve; as a rule, active = well fitted activation curve with a large enough effect; inconclusive = small, poorly fitted or top-dose-only effect, or another doubt; inactive = no such curve, though single readings can be large or run the other way. A potency beside an inconclusive call is a rough fit, not a confirmed value.

assay: qHTS of TDP-43 Inhibitors; details: TDP-43 expressing yeast growth rescue, BacTiter-Glo, 24 h; growth rescue (activation): at 46.1 µM (top of the series) unless noted; also: nearly all actives have a fitted effect of over 50% in size; as to growth rescue (activation): % of control where 0% means no effect
Summary of the method: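 Cell-based yeast growth screen: TDP-43 expression induced in galactose, inoculum OD600=0.02 after raffinose pregrowth to mid-log. Read-out BacTiter-Glo luminescence at 24 hr, 30 deg C; inhibition of toxicity seen as signal increase.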
Potency is read from the fitted curve at half-maximal effect; tags tell the direction and shape of the fitted curve.

Potency, active:
Clc1ccc(CSc2nncn3c2cc2occc23)cc1 25.1 µM
CCc1nc2nc(C)cc(Nc3cc(C)ccc3C)n2n1 20 µM
Cn1ccc2c(-c3ccc4[nH]ccc4c3)cc3c(c21)C1CCC3O1 (stereo not given) 15.8 µM
Cc1ccc(C(=O)OCc2nc(N)nc(Nc3ccccc3C)n2)cc1 12.6 µM
Cc1cc(C)cc(OCC(=O)N2CCC(c3nc4ccccc4o3)CC2)c1 22.4 µM

Potency, inconclusive:
Cc1ccc(Nc2ncnc3c2nc2n3CCCC2)cc1F 6.31 µM [activator, single point]
Cc1cc(C)cc(N=c2c([N+](=O)[O-])nn(-c3cccc(Cl)c3)n2O)c1 5.62 µM [activator, full curve]
Cc1cccc(OCc2nnc(-c3ccc(F)cc3)o2)c1 10 µM [activator, partial curve]
Cc1cccc(N2CCN(C(=O)c3cnn(-c4ccccc4)c3C3CCN(C(=O)OC(C)(C)C)CC3)CC2)c1C 35.5 µM [activator, single point]
CCOC(=O)/C(=C\C=C1/Sc2ccccc2N1CC)C(C)=O 22.4 µM [activator, single point]
Fc1ccccc1-c1nc(-c2ccncc2)no1 11.2 µM [activator, partial curve]
O=C(CSC(=S)N1CCSCC1)c1ccc(Cl)cc1 11.2 µM [activator, partial curve, poor fit]
O=C1C=C(N2CCOCC2)CCC1 6.31 µM [activator, partial curve]
O/N=C(/c1ccc(F)cc1)C1CC1c1c(F)cccc1Cl (stereo not given) 12.6 µM [activator, single point]
CCC(=O)n1nc(-c2cccnc2)nc1NCc1cccs1 22.4 µM [activator, partial curve]
COc1ccccc1C1=CC(=O)C[C@H](c2ccc3c(c2)OCO3)C1 35.5 µM [activator, single point]
COc1cccc(Cn2c(=O)n(Cc3ccccc3)c(=O)c3c2c2cc(OC)ccc2n3C)c1 0.355 µM [activator, full curve, poor fit]
O=C(COc1ccc(-c2nnco2)cc1)Nc1c(Cl)cccc1C(F)(F)F 35.5 µM [activator, single point]
Cc1csc2nc(NC(=O)c3ccccc3)sc(=O)c12 0.631 µM [activator, full curve]
CCCCCCNC(=O)c1cc(-c2ccco2)nc2ccccc12 35.5 µM [activator, single point]
CC(=O)c1ccc(N2CCC(c3cc(-c4ccc(Cl)cc4Cl)n[nH]3)CC2)c([N+](=O)[O-])c1 20 µM [activator, single point]
CN(C(=O)c1ccoc1)c1ccc2ccccc2c1 12.6 µM [activator, partial curve]
Cc1cc(C(=O)N2CCC(Cc3ccccc3)CC2)ccc1[N+](=O)[O-] 20 µM [activator, single point]
CCOC(=O)c1c(NC(=O)COc2ccccc2)sc(C(C)=O)c1C 6.31 µM [activator, partial curve, poor fit]
CC1CCCC(NC(=O)CSC2CCCCC2)C1C (stereo not given) 28.2 µM [activator, partial curve]
COC(=O)c1ccc(S(=O)(=O)N2CCc3ccccc32)cc1 31.6 µM [activator, single point]
CCCn1c(C)cc(C(=O)CN2C(=O)c3ccccc3S2(=O)=O)c1C 15.8 µM [activator, single point]
Cc1ccc(NC(NC(=O)c2cccs2)C(Cl)(Cl)Cl)cc1 (stereo not given) 17.8 µM [activator, single point]
COc1ccc(N2CCN(C(=O)c3cccc(Br)c3)CC2)c([N+](=O)[O-])c1 25.1 µM [activator, single point]
COC(=O)c1ccccc1NC(=O)C(Cc1ccccc1)N1Cc2ccccc2C1=O (stereo not given) 1 µM [activator, partial curve]
CCN(CC)S(=O)(=O)c1cc([N+](=O)[O-])ccc1N=Nc1c(O)[nH]c2ccccc12 28.2 µM [activator, partial curve, poor fit]
CC(c1ccccn1)N(C)C(=O)c1ccc2nc(Cc3cccc(Cl)c3)oc2c1 (stereo not given) 17.8 µM [activator, single point]
Cc1ccc(NC(=O)c2cccc(OC(F)F)c2)c(OC(F)F)c1 14.1 µM [activator, partial curve]
Cc1ccc(C)c(N2CCN(CCCNC(=O)c3ccc4nc(N5CCC(C)CC5)sc4c3)CC2)c1 22.4 µM [activator, partial curve, poor fit]
CCOc1cc(C=O)cc(Br)c1OCC(=O)NCCc1ccccc1 35.5 µM [activator, single point]
O=C(NC(=O)c1ccccc1F)Nc1nc(-c2cccs2)cc(C(F)(F)F)n1 0.631 µM [activator, full curve, poor fit]
COc1ccccc1NC(=O)Nc1ncccc1C 1 µM [activator, partial curve]
CCCCNC(=O)C1(C)CCCCN1C(=O)c1c(F)ccc(C)c1F (stereo not given) 0.562 µM [activator, full curve]
CCOc1ccc(C(=O)NCCc2csc(-c3cccc(C)c3)n2)cc1 35.5 µM [activator, partial curve]
CC(Nc1nc(-c2ccc(F)cc2)cs1)c1nc2cc(C(F)(F)F)ccc2n1CCOCCO (stereo not given) 35.5 µM [activator, partial curve, poor fit]
CCOC(=O)Cc1csc(N/N=C\c2ccccc2OC)n1 12.6 µM [activator, partial curve]
CCn1c(=NC(=O)c2ccco2)sc2cccc(F)c21 22.4 µM [activator, partial curve]
CCCc1cc(N2CCCC2)n2nc(C)c(-c3ccccc3)c2n1 12.6 µM [activator, partial curve]
O=C(COc1ccccc1Cl)N1N=C(c2cccs2)CC1c1ccco1 (stereo not given) 17.8 µM [activator, single point]
Cc1cc(C)c(S(C)(=O)=O)c(Sc2ccc(Cl)cc2)n1 11.2 µM [activator, single point]
O=C(Nc1cc(Cl)ccc1Cl)C1Cc2ccccc2O/C1=N\O (stereo not given) 6.31 µM [activator, partial curve]
O=C(c1noc2c1CCCC2)N1CCc2ccccc2C1 8.91 µM [activator, partial curve]
O=C(OCc1cc(Cl)ccc1OC(F)F)c1cncc(Br)c1 35.5 µM [activator, single point]
O=S(=O)(c1ccc(NCCCO)nc1)N1CCOCC1 35.5 µM [activator, partial curve]
S=C(NCc1ccccn1)Nc1ccc(Cl)cc1 11.2 µM [activator, single point]
Nc1sc(-c2ccccc2)cc1C(=O)N1CCN(c2ccccc2)CC1 35.5 µM [activator, partial curve]

Potency, inactive:
CCOC(=O)c1ccc(NC(=O)Cn2nc(C)c3nn(-c4ccc(Cl)cc4)c(C)c3c2=O)cc1
CN1CCc2c(sc3c2C(=O)NC(c2ccco2)N3)C1 (stereo not given)
COc1ccc(N2CC(NC(=O)C(c3ccccc3)c3ccccc3)CC2=O)cc1 (stereo not given)
COc1ccc(CNC(=O)C(=O)NCC(c2cccnc2)N2CCN(c3ccccc3)CC2)cc1 (stereo not given)
CCOC(=O)N1CCC(N(CCN(C)C)C(=S)Nc2ccc(Oc3ccccc3)cc2)CC1
CCN(C(=O)C(NS(=O)(=O)c1ccc(Br)s1)c1ccccc1)c1ccc(C)c(C)c1 (stereo not given)
O=C(CSc1nc(=O)n(Cc2ccncc2)c2c1CCC2)Nc1cccc(F)c1
C[C@@H]1C(=O)O[C@H]2C[C@@]34[C@H]5C[C@@H](C(C)(C)C)[C@]36[C@@H](OC(=O)[C@@H]6O)O[C@@]4(C(=O)O5)[C@]21O
CC(=O)Nc1ccc(S(=O)(=O)NCC2CCC(C(=O)NCCc3ccc(C)cc3)CC2)cc1 (stereo not given)
COc1ccc(NC(=O)/C=C/c2cc(Br)ccc2OC)cc1
Cc1ccc2c(c1)c1c(n2CC(O)Cn2c(C)nc3ccccc32)C(=O)CCC1 (stereo not given)
COc1ccc(N2CCN(C(=O)c3ccc(NS(=O)(=O)c4ccc(F)cc4)cc3)CC2)cc1
CCc1c(C)c2cc3c(c(C)c2oc1=O)OCN(CCc1ccc(OC)c(OC)c1)C3
CC(NC(=O)Cc1cccs1)c1ccccc1 (stereo not given)
O=C(O)C(Cc1c[nH]c2ccccc12)NS(=O)(=O)c1ccc(Cl)c(C(F)(F)F)c1 (stereo not given)
CCOc1nc(NCCO)nc(NCCC2=CCCCC2)n1
CCCc1ccc(OCC(=O)Nc2sc3c(c2C(=O)OCC)CCC(C(C)(C)C)C3)cc1 (stereo not given)
COc1ccc(-c2cc3ccc(O)c(CN4CCN(C)CC4)c3oc2=O)cc1OC

Growth rescue (activation), inconclusive:
O=C(c1cc(Cl)ccc1Cl)N1CCc2ccccc21 91.2% [activator]
